The other results are listed elsewhere or left out.
Tested on: PfHDP1 homeodomain (GST-tagged)
Experiment: gcPBM binding intensity (ln(normalized median fluorescence intensity)); higher = stronger DNA binding
Procedure, shortened: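 Binding intensity is the highest Masliner-normalised natural-log median intensity over replicate spots in either probe orientation. To obtain it, GST-tagged P. falciparum DNA-binding domains made in E. coli were incubated for 1 h on an Agilent 4 × 180k array of primer-extended double-stranded 36-bp intergenic genomic probes plus negative controls. Detection used Alexa488 anti-GST antibody with scanning at 488 nm.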

Sequence	gcPBM binding intensity (ln)
TATTCATCACTTTTTTGTACTTATGGATAAAATTTT [XGTACX_site3349]	6.89
TATATAATAAGAAAATATGTGCGTAGTTCAGCAAAA [XGTACX_negctrl_site304]	7.48
AAAATAAGAAAACAAATGCACACCATTTATATAGAT [CACACA_site1055]	8.92
GAAAAATATATTCTGGTGCATGAATAAAATCATAAA	9.33
AATTGGATAAACCAATTGGATTATAATACGATATAT [CACACA_negctrl_site275]	6.18
GAAAAAGATGCGCATACACACAGATGAATAACAAAA [CACACA_site1628]	7.73
ATATATATATATATATGTACATAATTAATAGCATAT [XGTACX_site1428]	9.29
TATTTATTTATGTACGCACACAGTTGATATTAATTC [CACACA_site2754]	7
ATATACAATACAAAAACACACACAAAAAAAGAAAAG [CACACA_site8668]	6.8
ATAGTATCTGGTAGCTGTACGAGTCGTAGAGTCTAA [XGTACX_site2539]	5.95
ATGTATATTTTTAAAAGTACAGAATTTTCATATGAA [XGTACX_site5754]	6.81
TTTCAAAAATGAGTTACACACACACCGATATATATA [CACACA_site5263]	7.1
AATAAATACTAAATGGTGCAAAATTTTTTAACACTG	10
TATATATATTATAGATGTACTTTCATATATATGTTT [XGTACX_site8189]	6.65
AGCCACCATATTTACACACACATCAAAATGTATTAA [CACACA_site1816]	7.2
GTGTAATATGAAATGTGTACACACGCACACACAAAA [XGTACX_site6180]	7.61
TAAAATATTTTTTGTAGTACCTTAATATTTTTGAAG [XGTACX_site3048]	6.46
TAAATATAATCTAAATGTACATGACATAATTTTTTT [XGTACX_site2856]	6.01
ATTTTATAAAGGAAGTGTACTAATAAATTCAAATTA [XGTACX_site3922]	6.18
AAAAAAGAATTGTGCACACACAAAAAATGTTCATAA [CACACA_site1103]	10.3
TCGATGTTGGTAGGATGTACGGTACCGGTAGTATTT [XGTACX_site4214]	6.33
AAAAAAAAAAAAAAATGTACAAATATATACATATAT [XGTACX_site935]	6.4
AAGAAAAAATATACTTCACACATTTAATATATAATT [CACACA_site4919]	6.06
TCAATTAGACGAAAATGTACATATGTATATATTTTT [XGTACX_site5027]	6.25
GATATATTTTATATATGTACATACAAGGGTAAATAT [XGTACX_site1202]	6.8

From the supplement of paper PMC11417369
